Reference: the supplement of paper PMC3334620
The full ranking holds about 33,000 sequences; the median of “E-score (-0.5 to 0.5)” is about -0.032, and the highest 2% start at about 0.36. The list shows a part of the results.

Molecular target: T1, Sko1 (UniProt Q02100)
T1 sequence: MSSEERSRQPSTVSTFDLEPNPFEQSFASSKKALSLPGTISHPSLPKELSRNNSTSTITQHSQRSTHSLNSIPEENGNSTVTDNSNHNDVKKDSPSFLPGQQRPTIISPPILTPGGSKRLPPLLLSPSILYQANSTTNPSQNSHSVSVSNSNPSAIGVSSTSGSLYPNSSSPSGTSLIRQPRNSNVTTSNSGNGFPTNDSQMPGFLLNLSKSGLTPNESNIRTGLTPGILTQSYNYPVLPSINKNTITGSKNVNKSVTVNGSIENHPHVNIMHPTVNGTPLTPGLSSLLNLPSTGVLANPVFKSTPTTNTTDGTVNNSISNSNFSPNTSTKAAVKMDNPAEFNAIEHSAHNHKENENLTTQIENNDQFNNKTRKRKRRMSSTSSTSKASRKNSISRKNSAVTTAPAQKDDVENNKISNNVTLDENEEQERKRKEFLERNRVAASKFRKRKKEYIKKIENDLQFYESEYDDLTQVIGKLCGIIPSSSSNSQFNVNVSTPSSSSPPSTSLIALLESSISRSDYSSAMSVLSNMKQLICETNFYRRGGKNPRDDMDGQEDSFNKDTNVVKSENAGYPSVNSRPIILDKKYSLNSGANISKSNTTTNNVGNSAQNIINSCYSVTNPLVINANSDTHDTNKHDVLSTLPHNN
Assay: PBM E-score (8-mer binding enrichment) (E-score (-0.5 to 0.5)); higher = stronger / more preferred TF binding; most listed sequences are background and not binding sites
Settings: protein concentration: 200 nM; construct: GST-full length
Method in brief: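 E-scores (a modified Wilcoxon-Mann-Whitney statistic) were assigned by the Universal PBM Analysis Suite to every ungapped eight-base word pooled with its reverse complement. The input came from universal all-10-mer Agilent arrays made double-stranded by primer extension and probed with GST-tagged yeast transcription factors at about 100-200 nM. Fluorescent anti-GST detected bound protein, and masliner normalised the scans.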

Compared with GGGTGCCA, TGCTCCCA is higher in “PBM E-score” value: -0.219 for the first, 0.0122 for the second.

First: AGCCACCG
Second: CTAGGTCC
The “PBM E-score” value of the first is higher: -0.269 for the first, -0.293 for the second.

Compared with GCGACAGA, GAACACCC is lower in “PBM E-score” value: -0.0153 for the first, -0.249 for the second.

Going from AATCTTTG to GCAGCTGA, the “PBM E-score” value falls from 0.0752 to -0.164.

Compared with CTACAAAA, AGGTAAAA is higher in “PBM E-score” value: 0.101 for the first, 0.104 for the second.

First: TTGTACAA
Second: GAAGTCGA
The “PBM E-score” value of the first is higher: 0.102 for the first, -0.0594 for the second.

First: GATTCCCC
Second: AACTGTTG
The “PBM E-score” value of the first is higher: -0.164 for the first, -0.179 for the second.

Going from ATGGTTTG to ATAGCAGA, the “PBM E-score” value rises from -0.0969 to -0.0268.

Compared with AAGCCGCA, GCTCTCAA is higher in “PBM E-score” value: 0.00253 for the first, 0.0152 for the second.

First: AGCCAAGC
Second: GGGGACTA
The “PBM E-score” value of the first is lower: -0.245 for the first, -0.208 for the second.

Going from CTGGTACA to GAAAGGCC, the “PBM E-score” value falls from -0.00751 to -0.073.

Going from GGGAACCA to CAAAACAG, the “PBM E-score” value rises from -0.104 to -0.0368.

Compared with CCTTACTC, GCGGTGGA is lower in “PBM E-score” value: -0.121 for the first, -0.193 for the second.

First: AGGCGGAT
Second: CACTTCTC
The “PBM E-score” value of the first is higher: -0.109 for the first, -0.219 for the second.

First: ATTGCGAC
Second: CTCCCGAG
The “PBM E-score” value of the first is higher: 0.17 for the first, -0.339 for the second.

Going from CGGCTGAG to AGCTTATC, the “PBM E-score” value rises from -0.248 to -0.129.

Going from CGAGTGCA to CTCGTAAG, the “PBM E-score” value rises from 0.091 to 0.243.

First: GCATGTAC
Second: GGTGAGCA
The “PBM E-score” value of the first is higher: 0.0835 for the first, -0.0791 for the second.

Compared with CATAGCAA, ATATTAAA is higher in “PBM E-score” value: 0.0975 for the first, 0.306 for the second.

Compared with CTTTACGA, CGGTACCA is lower in “PBM E-score” value: 0.218 for the first, -0.229 for the second.

Going from TGTTAAAA to CCTGAAGC, the “PBM E-score” value falls from 0.21 to -0.293.

First: AAAAAGGA
Second: AAGTCCTG
The “PBM E-score” value of the first is higher: -0.01 for the first, -0.228 for the second.

Going from TAAGGTGA to ACGCAGGC, the “PBM E-score” value falls from 0.0936 to 0.0678.

Going from CGAAGTAG to CCTAGGCA, the “PBM E-score” value falls from -0.0675 to -0.257.

First: CAGTAAAC
Second: ACGTTAGC
The “PBM E-score” value of the first is lower: -0.0449 for the first, 0.352 for the second.

Compared with ATGTACTG, ACGGCTCC is lower in “PBM E-score” value: -0.0689 for the first, -0.209 for the second.

Going from CTCAGGTA to ACAACGAC, the “PBM E-score” value rises from -0.0368 to 0.174.

Going from GAGGCCTC to ATTAATAC, the “PBM E-score” value rises from -0.471 to 0.215.

First: CTCAGGAG
Second: ACGGCTGC
The “PBM E-score” value of the first is higher: -0.159 for the first, -0.307 for the second.

First: CCATCGAA
Second: CACCAGTG
The “PBM E-score” value of the first is higher: 0.00557 for the first, -0.218 for the second.

Going from CAGACTAG to CGCTGGAC, the “PBM E-score” value rises from -0.234 to -0.172.

Going from AGTTTCAC to CAGTTCCC, the “PBM E-score” value falls from 0.0462 to -0.152.

First: CAGTTGGG
Second: ATAATCGA
The “PBM E-score” value of the first is lower: -0.154 for the first, 0.0247 for the second.

Compared with AGAGTGGG, ACTTCCGC is lower in “PBM E-score” value: -0.171 for the first, -0.215 for the second.

Going from ACCGTCGC to ACGCATAC, the “PBM E-score” value rises from -0.111 to 0.333.

Going from ACATGACT to CGCAGTCA, the “PBM E-score” value rises from -0.0468 to -0.00246.

Going from CTATTGCA to ACCTGTGG, the “PBM E-score” value falls from 0.161 to -0.197.

First: AGAACCCT
Second: CTCCTAGA
The “PBM E-score” value of the first is lower: -0.272 for the first, -0.243 for the second.

First: CAAATAGA
Second: GTACAAGA
The “PBM E-score” value of the first is higher: 0.106 for the first, 0.0711 for the second.

First: AGCTGTTA
Second: AAGCTGTA
The “PBM E-score” value of the first is lower: 0.0248 for the first, 0.19 for the second.

First: ATTGAGCA
Second: ACCCTCGA
The “PBM E-score” value of the first is higher: 0.026 for the first, -0.182 for the second.

First: AAAATGAC
Second: CTTCAATC
The “PBM E-score” value of the first is higher: 0.356 for the first, -0.0703 for the second.

Going from ACATTAAT to CGGAGGGC, the “PBM E-score” value falls from 0.145 to -0.385.

Going from GATTGTCA to ATAACCCA, the “PBM E-score” value falls from 0.136 to -0.0509.

First: AACCTAGC
Second: AGAGAGAG
The “PBM E-score” value of the first is higher: -0.123 for the first, -0.151 for the second.

First: CCGTTGGA
Second: CATTGCAC
The “PBM E-score” value of the first is lower: -0.119 for the first, 0.0802 for the second.

Going from CAATTCCC to TGCGTCAA, the “PBM E-score” value rises from 0.0939 to 0.377.

First: TCCGACGA
Second: AGCTTTCC
The “PBM E-score” value of the first is higher: 0.0655 for the first, -0.147 for the second.

Compared with AGAGCCGA, ATCCGAAC is lower in “PBM E-score” value: -0.125 for the first, -0.19 for the second.

First: AGGTGAGA
Second: GGCTATTA
The “PBM E-score” value of the first is lower: 0.0124 for the first, 0.261 for the second.

Going from CTAGTACA to CTCTGTGA, the “PBM E-score” value falls from 0.083 to 0.0354.

Compared with CGTACCAA, ACGTGATG is higher in “PBM E-score” value: 0.229 for the first, 0.442 for the second.

First: ACCACGAA
Second: GTGGACGA
The “PBM E-score” value of the first is higher: 0.131 for the first, 0.11 for the second.

First: AAACAGCG
Second: ATGGCAGC
The “PBM E-score” value of the first is higher: 0.0903 for the first, -0.235 for the second.

Going from AGGAAAAC to CTCACTGC, the “PBM E-score” value falls from -0.108 to -0.114.

Compared with TTTAAAAA, GACTATTA is lower in “PBM E-score” value: 0.234 for the first, 0.0115 for the second.

Going from AGGGAATC to ATAACGAT, the “PBM E-score” value rises from -0.153 to 0.154.

First: CATGTAGG
Second: ATGGATAA
The “PBM E-score” value of the first is higher: 0.111 for the first, -0.0663 for the second.

First: AGCCGTCG
Second: AGGGAAGA
The “PBM E-score” value of the first is higher: -0.145 for the first, -0.21 for the second.

Compared with ACTGCGCG, AAATACTG is lower in “PBM E-score” value: 0.0146 for the first, -0.00639 for the second.

Compared with CACGGAGG, CAAGTATA is higher in “PBM E-score” value: -0.209 for the first, -0.0893 for the second.

First: CATACGGG
Second: AGTAATGC
The “PBM E-score” value of the first is lower: -0.0866 for the first, 0.0678 for the second.

Going from AACCGAGA to ATTCGTAG, the “PBM E-score” value rises from -0.154 to 0.324.

Going from CGAGGCTC to CACGCGGG, the “PBM E-score” value rises from -0.124 to -0.0357.

Compared with CTAGCGGA, GTAAACCA is higher in “PBM E-score” value: -0.309 for the first, -0.0918 for the second.

First: CTCCCCAC
Second: GCTAGCCC
The “PBM E-score” value of the first is higher: -0.00257 for the first, -0.26 for the second.

Going from TCGACAAA to ATTTTCAG, the “PBM E-score” value falls from 0.163 to 0.0915.

Compared with GGTAAGAA, ATCCTCTA is higher in “PBM E-score” value: -0.19 for the first, -0.0602 for the second.

Compared with ATGGCTAG, AACGTCGG is higher in “PBM E-score” value: -0.0737 for the first, 0.182 for the second.

Going from ATAGCTTA to CATGATGC, the “PBM E-score” value rises from 0.139 to 0.258.

First: AGGAGACC
Second: CGTGTGCC
The “PBM E-score” value of the first is lower: -0.279 for the first, 0.204 for the second.

First: ATGGCGCG
Second: GCAGCCCC
The “PBM E-score” value of the first is higher: 0.00027 for the first, -0.351 for the second.

Compared with CCGTGCGC, GGATATTA is higher in “PBM E-score” value: -0.067 for the first, 0.108 for the second.

Compared with ACCTTACG, AGATGCAT is lower in “PBM E-score” value: 0.338 for the first, -0.0801 for the second.

Compared with CAACTCAG, CACCCAAA is higher in “PBM E-score” value: -0.198 for the first, 0.00176 for the second.

Compared with ACCAATAA, CTGCGTAA is higher in “PBM E-score” value: 0.149 for the first, 0.397 for the second.

Compared with CTTTTGCA, TCCAGGAA is lower in “PBM E-score” value: 0.057 for the first, -0.07 for the second.

Going from CCATAGGA to AAATTCAG, the “PBM E-score” value rises from -0.101 to 0.0894.

First: ATCCAGAG
Second: GTGCAAAA
The “PBM E-score” value of the first is lower: -0.0594 for the first, 0.059 for the second.

Going from GAACCACC to AGTCAGCG, the “PBM E-score” value falls from 0.166 to -0.162.

First: CTTGACGC
Second: TCCCCTAA
The “PBM E-score” value of the first is higher: 0.262 for the first, -0.0831 for the second.

First: TCGCAAGA
Second: ACTGCTGC
The “PBM E-score” value of the first is lower: -0.167 for the first, -0.0429 for the second.

First: GTCGGAGA
Second: ACTTGCGG
The “PBM E-score” value of the first is higher: -0.0708 for the first, -0.118 for the second.

Compared with ACCAGCTG, TACGTACA is higher in “PBM E-score” value: -0.229 for the first, 0.477 for the second.

Compared with AAGTCAGG, GGCCCCAA is higher in “PBM E-score” value: -0.225 for the first, -0.198 for the second.

Compared with CGCTAGGC, CATATCAA is higher in “PBM E-score” value: -0.223 for the first, 0.254 for the second.
